The values that follow come from the supplement of paper PMC9446081.

Hit rate of the full screen: of about 39,000 compounds, about 220 (0.56%) showed activity. The list shows a part of the results.
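Note: static incubation at 37 °C against the wild-type strain, values averaged over two biological replicates.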

The subject of the experiment is Escherichia coli K-12 BW25113. Nature of the experiment: relative growth (OD600 normalised to plate interquartile mean) (fraction); higher = less growth inhibition, active = 0.2 or less. The settings on record: 50 µM; LB; incubation time: overnight (16-24 h).
For the molecule `C[C@@H]1CN([C@@H](C)CO)S(=O)(=O)c2ccc(C#Cc3cccc(F)c3)cc2O[C@@H]1CN(C)S(=O)(=O)c1cn(C)cn1`, the relative growth is inactive: 1.01.
For `C[C@@H]1CN([C@@H](C)CO)C(=O)c2cc(NS(=O)(=O)c3cn(C)cn3)ccc2O[C@@H]1CN(C)S(=O)(=O)c1ccc(F)cc1` the value was inactive: 1; for `C[C@@H]1CN([C@H](C)CO)S(=O)(=O)c2ccc(C#Cc3ccncc3)cc2O[C@H]1CN(C)C(=O)C1CCC1`, inactive: 0.989; for `Cc1ccc(S(=O)(=O)Nc2cccc3c2O[C@H](CN(C)S(=O)(=O)c2cn(C)cn2)[C@@H](C)CN([C@@H](C)CO)C3=O)cc1`, inactive: 0.985.
Consider `C[C@H]1CN([C@@H](C)CO)C(=O)c2cc(NC(=O)CCN3CCOCC3)ccc2O[C@H]1CN(C)S(=O)(=O)c1ccc(F)cc1`, for which the relative growth was inactive: 0.983.
For `C[C@H](CO)N1C[C@H](C)[C@@H](CN(C)Cc2ccc(-c3ccccc3)cc2)Oc2c(NC(=O)c3nc4ccccc4s3)cccc2C1=O` the value was inactive: 1.04; for `O=c1cc[nH]cc1`, inactive: 1.01.
Under `C[C@@H]1CN([C@@H](C)CO)C(=O)Cc2cc(NC(=O)Nc3cccc4ccccc34)ccc2O[C@@H]1CN(C)C(=O)Nc1ccc(C(F)(F)F)cc1` stands inactive: 0.991; under `COc1ccc(NC(=O)Nc2ccc3c(c2)C(=O)N([C@H](C)CO)C[C@H](C)[C@H](CN(C)S(=O)(=O)c2ccc(OC)cc2)OCCCC[C@@H](C)O3)cc1`, inactive: 1.01; under `Cc1noc(C)c1NC(=O)N(C)C[C@@H]1Oc2ccc(NS(C)(=O)=O)cc2C(=O)N([C@@H](C)CO)C[C@H]1C`, inactive: 1.
Under `C[C@H](CO)N1C[C@H](C)[C@@H](CN(C)S(=O)(=O)c2cn(C)cn2)OCc2cn(nn2)CCCC1=O` stands inactive: 0.992; under `C[C@H]1CN([C@@H](C)CO)C(=O)c2cc(NS(=O)(=O)c3cn(C)cn3)ccc2O[C@H]1CN(C)S(C)(=O)=O`, inactive: 1.02.
Consider `C[C@H](CO)N1C[C@H](C)[C@@H](CN(C)C(=O)c2ccc3c(c2)OCO3)Oc2ncc(C#Cc3ccccc3F)cc2C1=O`, for which the relative growth was inactive: 1.02.
For the molecule `COc1ccc(NC(=O)Nc2cccc3c2O[C@H](CN(C)Cc2ccc(C(=O)Nc4ccccc4N)cc2)[C@@H](C)CN([C@@H](C)CO)C3=O)cc1`, the relative growth was inactive: 1.04.
For the molecule `O=C(C[C@@H]1CC[C@H]2[C@@H](COC[C@@H](O)CN2S(=O)(=O)c2ccc(Cl)cc2)O1)NCCN1CCCC1`, the relative growth is inactive: 0.995.
As for `C[C@@H]1CN([C@H](C)CO)C(=O)c2cc(NC(=O)c3ccncc3)ccc2O[C@@H](C)CCCCO[C@H]1CN(C)C(=O)Nc1ccc(F)cc1`, the relative growth was inactive: 1.
For `C[C@@H]1CN([C@@H](C)CO)C(=O)c2cc(NC(=O)c3ccncc3)ccc2O[C@H]1CN(C)Cc1ccc(Oc2ccccc2)cc1` the value was inactive: 0.994.
For `Cc1cc(C(=O)Nc2cccc3c2O[C@@H](CN(C)S(=O)(=O)c2ccc(F)cc2)[C@H](C)CN([C@@H](C)CO)C3=O)n(C)n1` the value was inactive: 1.01; for `COC(=O)C1=CO[C@@H](O[C@H]2O[C@@H](CO)[C@@H](O)[C@@H](O)[C@@H]2O)[C@@H]2C(CO)=C[C@H](O)[C@H]12`, inactive: 1.02; for `C[C@@H]1CCCCO[C@H](CN(C)S(=O)(=O)c2ccc(Cl)cc2)[C@@H](C)CN([C@H](C)CO)C(=O)c2cc(NC(=O)Nc3ccc(F)cc3)ccc2O1`, inactive: 1.
Take `C[C@@H]1CN([C@@H](C)CO)S(=O)(=O)c2ccc(C#Cc3cccc(F)c3)cc2O[C@@H]1CN(C)C(=O)CN1CCOCC1`: the relative growth was inactive: 1.01.
For the molecule `Cc1noc(C)c1S(=O)(=O)N(C)C[C@H]1Oc2ccc(NS(=O)(=O)c3ccccc3)cc2C(=O)N([C@H](C)CO)C[C@H]1C`, the relative growth is inactive: 1.01.
Take `C[C@H]1CN([C@@H](C)CO)C(=O)Cc2cc(NC(=O)Cn3cnnn3)ccc2O[C@H]1CN(C)Cc1ccc(Oc2ccccc2)cc1`: the relative growth was inactive: 1.01.
Turning to `C[C@@H]1CN([C@@H](C)CO)S(=O)(=O)c2ccc(C#Cc3cccc(F)c3)cc2O[C@@H]1CN(C)S(=O)(=O)c1ccccc1F`, the relative growth was inactive: 1.06.
For `COc1ccc(CN(C)C[C@H]2Oc3c(NC(=O)CCCCCC(=O)Nc4ccccc4N)cccc3C(=O)N([C@H](C)CO)C[C@@H]2C)cc1` the value was inactive: 0.996.
For `C1N2CN3CN1CN(C2)C3`, the relative growth is inactive: 1.01.
For `CCn1ncc(Br)c1CN`, the relative growth was inactive: 1.02.
Turning to `C[C@@H]1CN([C@@H](C)CO)C(=O)Cc2cc(NC(=O)C3CCCCC3)ccc2O[C@@H]1CN(C)Cc1ccc(Oc2ccccc2)cc1`, the relative growth is inactive: 1.02.
Under `C[C@H](CO)N1C[C@H](C)[C@@H](CN(C)C(=O)CCC(F)(F)F)OCCCC[C@H](C)Oc2ccc(NS(=O)(=O)c3ccccc3)cc2C1=O` stands inactive: 0.967; under `COc1ccc(S(=O)(=O)Nc2ccc3c(c2)CC(=O)N([C@@H](C)CO)C[C@H](C)[C@@H](CN(C)Cc2ccc(Oc4ccccc4)cc2)O3)cc1`, inactive: 1.03.
Take `O=C(NO)c1ccc(-c2cn(CC(=O)N3CCOCC3)nn2)s1`: the relative growth was inactive: 1.02.
With `O=C(C[C@@H]1C[C@@H]2c3cc(NC(=O)Cc4ccncc4)ccc3O[C@@H]2[C@H](CO)O1)NCCc1ccccc1`, the relative growth is inactive: 0.986.
For `C[C@H]1CN([C@@H](C)CO)C(=O)Cc2cc(NS(C)(=O)=O)ccc2O[C@@H]1CN(C)S(=O)(=O)c1ccccc1` the value was inactive: 1.04.
Regarding `Cc1ccccc1NC(=O)C[C@H]1CC[C@H]2[C@@H](COc3ccc(NC(=O)c4ccc(Cl)cc4)cc3C(=O)N2C)O1`, the relative growth was inactive: 1.02.
Under `C[C@@H]1CN([C@H](C)CO)C(=O)c2cc(NC(=O)Nc3ccc(F)cc3)ccc2O[C@@H](C)CCCCO[C@H]1CN(C)Cc1ccc2c(c1)OCO2` stands inactive: 1.03; under `CO[C@H](CN(C)C(=O)c1ccc2c(c1)OCO2)[C@H](C)CN([C@@H](C)CO)S(=O)(=O)c1ccc(Cl)cc1`, inactive: 1.01.
With `C[C@@H]1CN([C@H](C)CO)C(=O)c2cc(NC(=O)Nc3ccc4c(c3)OCO4)ccc2O[C@@H]1CN(C)S(=O)(=O)c1cn(C)cn1`, the relative growth was inactive: 0.999.
